Measured values reported in the RNAGym collection of RNA variant scans (doi:10.7554/elife.90254).
The source gives no read counts; variants with many changes may rest on few reads.

B1: LINE1-mini (parent)
chain: GGCAGAGCUCAACACAGCGUGGCAAAGUGGCUGUGGCUAGACUGCC

Variants of: B1
Experiment: self-cleavage, relative activity (ratio to wild type); higher = more cleavage; in vitro, sequencing; the parent is a self-cleaving ribozyme

Row | Variant | self-cleavage
1 | C3U A26G U38G A41G | 0.01
2 | A12U U34C A39U | 0.09
3 | G2C C31U G36A C42A C46A | 0.15
4 | G5U U28G A39C C45G | 0
5 | G2U G7A A16G G19U | 0.06
6 | C31U A41C C42A | 0.01
7 | G2A G19U A24C U32G G35A | 0.17
8 | U9G C10G C15U G40U | 0.01
9 | G1U A16C G21U | 0.03
10 | U9G C13A C15A C31U | 0.03
11 | A6G C18A U28A G35U | 0.03
12 | C10U G19A U20G G22A A41U | 0.06
13 | G2U C18G G27C C45A | 0.46
14 | C3A G30U G35C U38G | 0.18
15 | A14U C18U U32C G36U | 0.09
16 | C3U C13A A25C G29C C31G | 0.16
17 | C8G C10G A24U G40U A41U C42G | 0.01
18 | C3G C31A C42U | 0.14
19 | G2A G7U C18U A26C G40A C45A | 0.28
20 | A11G A14C C18A U38G | 0
21 | G1U A26G G30C | 0.24

Row | Variant | self-cleavage
22 | A12U G21U C37A | 0.01
23 | G2C C10U A11G A14G G30U U34G G36U | 0.01
24 | G17A A39G U43C | 0
25 | G7C A11G C18U | 0.02
26 | G1A C10U A12C U20C G29C C42A G44C | 0.01
27 | G1C C18A A26C U32C G36C U38G | 0.01
28 | G2C A24U A41U | 0.04
29 | G17A G22C A25G C31A U34C | 0.01
30 | A25C G29C G36U | 0.02
31 | G2A C15G G17A G22A G33C | 0.03
32 | G1U U9A G29A | 0.02
33 | U20G G29U C31A U32G A39G G44U | 0.02
34 | G7C G17U G21U G35A | 0.02
35 | G7C G17C A26C | 0.05
36 | G17C C31G U34C C42U | 0.05
37 | C18G G19U G30U | 0.51
38 | C10G A24C G44A | 0.02
39 | G17U G19U U20G G27A G33C | 0.02
40 | C8G G22C G44U | 0.02
41 | C18A G22U C23A A26U | 0.97
42 | C15U G17A A25G | 0.03

Row | Variant | self-cleavage
43 | G36A A41G U43G | 0
44 | A4G A11C C13G A39G | 0.03
45 | C23G G35U U43A | 0.02
46 | G29A C42G U43C | 0.02
47 | G21U G35U U38C G40U | 0.25
48 | G1C G22U G29A | 0.12
49 | C3A C10U U28C G40A | 0.06
50 | C23G A24U A41C C42G C46A | 0.03
51 | G17A G40C A41U | 0.03
52 | G5A C15A G36C G40U | 0.01
53 | A16G A24G C31U | 0.02
54 | A26C G30U G40A | 0.07
55 | G1C A6G A11C C18G A26G G35A | 0
56 | A14U C23U G27A A39U | 0.61
57 | C8A U20A U32G A41U | 0.07
58 | G1U A4C U34G | 0.03
59 | A6U A11G A12C U34C U38C | 0
60 | C10A G19U G35A G36A C42G | 0.02
61 | A11C G21U U28C C42U | 0.1
62 | G1A C3U A4G C18G C23G | 0.14
63 | C3G A24U C37A C42G C46G | 0.03

Row | Variant | self-cleavage
64 | G2U G21A G36C | 0.03
65 | G2U G7A G27A | 0.13
66 | C15U G19U A26G G27U C37G | 0.02
67 | C18U C23A C31A G36A G44U | 0
68 | C3G C15U G27C C31U | 0.53
69 | C10U C15G G21C G27C G44C | 0.01
70 | G5A G7U A12G G19C G29A | 0.09
71 | C3A C10A C46A | 0.04
72 | A14U G29A C42A | 0.03
73 | A11G A14U A26G G44U | 0.01
74 | A12G G30U U38C | 0.03
75 | G2U C8A G27C | 0.02
76 | U20A A26U U32A | 0.09
77 | C3G G17C G35U | 0.15
78 | C31U G36U A41G | 0.03
79 | G22A G27C U34G G40C | 0.03
80 | C13G C15U C23U | 0.03
81 | C3G G19A G29A U43A | 0.46
82 | C10U A25C U34G U38A | 0
83 | G7U A11G G17U G29U G35U A41U C46A | 0.01
